Test results published in the RNAGym collection of RNA variant scans (doi:10.1093/nar/gkz1192).
The source gives no read counts; variants with many changes may rest on few reads.

B1: CPEB3 Ribozyme (parent)
chain: UAACAGGGGGCCACAGCAGAAGCGUUCACGUCGCAGCCCCUGUCAGAUUCUGGUGAAUCUGCGAAUUCUGCUGUAUAUCUC

Variants of: B1
Test: self-cleavage, relative activity (ratio to wild type); higher = more cleavage; in vitro, sequencing
Procedure, shortened: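 Relative activity compares each variant's cleaved/total read fraction with that of the unmutated ribozyme. To get these fractions, barcoded CPEB3 ribozyme libraries from rounds of error-prone PCR were transcribed with T7 RNA polymerase for 5 hours at 37°C and then given 15 min of DNase I treatment before EDTA was added. The RNAs were reverse transcribed with template switching and sequenced on Illumina, and DNA sequencing linked barcodes to variants. A minimum of 5 reads applied, and three batches were averaged.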

**Q.** For UAACAGGGGGCCACAGCAGAAGCGCUCACGUCGCUGCCCCUAUCAGAUUCUGGUGAAUCUGCGAAUUCUGCUGUAUAUCUC, which self-cleavage is on record?
**A.** 0.47

**Q.** For UAACAGGGGGCCACAGCAGAAGCGCUCACGUCGCAGCCCCUGUCGGAUUCUGGUGAAUCCGCGAAUUCUGCUGUAUAUCUC, which self-cleavage is on record?
**A.** 0.27

**Q.** Which self-cleavage does the source give for UAACAGGGGGCCACAGCAGAAGCGCUCACGUCGCCGCCCCUGUCAGAUUCUGGUGAAUCUGCGAAUCCUGCUGUAUAUCUC here?
**A.** 0.07

**Q.** Which self-cleavage does the source give for UAACAGGGGGCCACAGCAGAAGCGCUCACGUCGCGGCCCCUGUCAGAUUCUGGUGAAUCUGCGAAUUCUGCUGUAUGUCUC here?
**A.** 0.33

**Q.** For UAACAGGGGGCCACAGCAGAAGCGCUCUCGUCGCAGCCCCCGCCAGAUUCUGGUGAACCUGCGAGUUCUGCUGUAUAUCUC, which self-cleavage is on record?
**A.** 0.05

**Q.** For UAACAGGGGGCCACAGCAGAAGCGCUCACGUCGCGGCCGCCGUCAGAUUCUGGUGAAUCUGCGGAUUCUGCUAUAUAUCUC, which self-cleavage is on record?
**A.** 0.08

**Q.** For UAACAGGGGGCCACAGCAGAAGCGCUCACGUCGCAGCCCCUGUCUGUUUCUGGCGAAUCUGCGAAUUCUGCUGUGUAUCUC, which self-cleavage is on record?
**A.** 0.09

**Q.** With UAACAGGGGGCCACAGCAGAAGCGCUCACGUCGCUGCCCCUGUCAGAUUCUGGUGAAUCUGCGAAUUCUGCUGUGUACCUC as the variant, how does the self-cleavage read?
**A.** 0.1

**Q.** For UAACAGGGGGCCACAGCAGAAGCGCUCACGUCGCGGCCCCUGUCUGAUUCUGGUGAAUCUGCGAAUUCUGCUGUAUAUCAC, which self-cleavage is on record?
**A.** 0.12

**Q.** With UAACAGGGGGCCACAGCAGAAGCGCUCACGUCGCUGCCCCUGUCAGAUUAUGGUGGAUCCGCGAACUCUGCUGUAAAUCUC as the variant, how does the self-cleavage read?
**A.** 0.05

**Q.** With UAACAGGGGGCCACAGCAGAAGCGCUCACGUCGCUGCCCCUGUCAGAUUCUGGUGAAUCUGCGAAUUCUGAUGUAUAUCUC as the variant, how does the self-cleavage read?
**A.** 0.06

**Q.** For UAACAGGGGGCCACAGCAGAAGCGCUCUCGUCGCAGCCCCAGUCAGAUUCUGGUGAAUCUACGAAUUCUGCUGUAUAUCUC, which self-cleavage is on record?
**A.** 0.29

**Q.** For UAACAGGGGGCCACAGCAGAAGCGCUCACGUCGCGGCCCCUGCCAGAUUCUGGUGAAUCUGCGAAUCCUGCCGUAUAUCUC, which self-cleavage is on record?
**A.** 0.15

**Q.** With UAACAGGGGGCCACAGCAGAAGCGCUCACGUCGCGGCCCCUGUCAGGUUCUGGUGAAUCUGCGAAUUCUGCUGUUUAUCCC as the variant, how does the self-cleavage read?
**A.** 0.26

**Q.** Which self-cleavage does the source give for UAACAGGGGGCCACAGCAGAAGCGCUCACGUCGCUGCCCCUGUCAGAUUCCGGUGAAUCUGCGAAUUCUGCUGUAUAUCUC here?
**A.** 0.22

**Q.** Which self-cleavage does the source give for UAACAGGGGGCCACAGCAGAAGCGCUCACGUCGCAGCCCCUGUCCGAUUCUGGUGAAUCAGCGAAUUCUGCUGUAUAUCUC here?
**A.** 0.08

**Q.** For UAACAGGGGGCCACAGCAGAAGCGCUCACGUCGCUGCCCCUGACAGAUUCUGGUGAGCCUGCGAAUUCUGCUGUAUACCUC, which self-cleavage is on record?
**A.** 0.15

**Q.** Which self-cleavage does the source give for UAACAGGGGGCCACAGCAGAAGCGCUCACGUCGCGGCCCUUGUCAGAUUUUGGUGAAUCUGCGAAUUCUGCUGUAUAUCUC here?
**A.** 0.19

**Q.** Which self-cleavage does the source give for UAACAGGGGGCCACAGCAGAAGCGCUCACGUCGCUGCCCCUGCCAGAUUCUGGUGAAUCUGCGAAUCCUGCUGAAUGUCUC here?
**A.** 0.08

**Q.** With UAACAGGGGGCCACAGCAGAAGCGCUCACGUCGCAGCCCCUGUCGGAUUCUGGUGUAUCUGCGAAUUCUGCUGUAUAUCUC as the variant, how does the self-cleavage read?
**A.** 0.24

**Q.** Which self-cleavage does the source give for UAACAGGGGGCCACAGCAGAAGCGCUCACGUCGCGGCCCCUGUCAGAUUCUGGUGAACCUGCGAAUUCCGCUGUAUAUCUC here?
**A.** 0.12

**Q.** Which self-cleavage does the source give for UAACAGGGGGCCACAGCAGAAGCGCUCACGUCGCAGCCCCUGUCGGAUUCUGGUGAAUCUGCAAAUUCUGCUGUAUAUCUC here?
**A.** 0.61

**Q.** Which self-cleavage does the source give for UAACAGGGGGCCACAGCAGAAGCGCUCUCGUCGCAGCCCCUGUCAGAUUCUGGUGAAACUGCGAAUUCUGCUGUAUAUCUC here?
**A.** 0.53

**Q.** For UAACAGGGGGCCACAGCAGAAGCGCUCUCGUCGCAGCCCCUGUCAGACUCUGGUGAAUCUGCGAAUUCUGCUGUAUAUCUC, which self-cleavage is on record?
**A.** 0.14

**Q.** For UAACAGGGGGCCACAGCAGAAGCGCUCACGUCGCAGCCCCUGUCGGAUUCUGGUGGAUCUGCGAACUCUGCUGUAUAUCUC, which self-cleavage is on record?
**A.** 0.31

**Q.** Which self-cleavage does the source give for UAACAGGGGGCCACAGCAGAAGCGCUCACGUCGCGGCCCCUGUCAGGUUCUGGUGAAUCUGCGAAUUCAGCUGUAUAUCUC here?
**A.** 0.17

**Q.** For UAACAGGGGGCCACAGCAGAAGCGCUCACGUCGCGGCCCCUGUCAGAUACUGGUGAAUCAGCGGAUUCUGCUGUAUAUCUC, which self-cleavage is on record?
**A.** 0.25

**Q.** Which self-cleavage does the source give for UAACAGGGGGCCACAGCAGAAGCGCUCACGUCGCAGCCCCUGUCGGAUUCUGGUGAAUCUGCGAACUCUGCUGUAUAUCUC here?
**A.** 0.12

**Q.** Which self-cleavage does the source give for UAACAGGGGGCCACAGCAGAAGCGCUCUCGUAGCGGCCCCUGUCAGAUUCUGGUGGAUCUGCGAAUUCUGCUGUAUAUCUC here?
**A.** 0.16

**Q.** Which self-cleavage does the source give for UAACAGGGGGCCACAGCAGAAGCGCUCACGUCGCGGCCCCUGUCAGAUUCUGGUGAUUCUGCGAAUUCUGCUGUAUGUCUC here?
**A.** 0.14

**Q.** Which self-cleavage does the source give for UAACAGGGGGCCACAGCAGAAGCGCUCACGUCGCGGCCCCUGUCAGAUUCUGGUGAAUCUGCGUAUUCUGCUGUAUAUCUC here?
**A.** 0.12

**Q.** Which self-cleavage does the source give for UAACAGGGGGCCACAGCAGAAGCGCUCUCGUCGCAGCCCCUGUCAGAUUCUGGUGAAUCUGCGUAUUCUGCUGUAUAUCUC here?
**A.** 0.48

**Q.** Which self-cleavage does the source give for UAACAGGGGGCCACAGCAGAAGCGCUCACGUCGCAGCCCCUGUCGGAUUCUGGUGAAUCUGCGAAUUCAGCUGUAUAUCUC here?
**A.** 0.49

**Q.** For UAACAGGGGGCCACAGCAGAAGCGCUCACGUCGCAGCCCCUGUCGGGUUCUGGUGGGACUGCGAAUUCUGCCGUAUAUCUC, which self-cleavage is on record?
**A.** 0
